# Data as given in PubChem BioAssay (NCATS).
# Several values for one entry are separate records, joined by “and”; a condition that tells them apart may be missing. Equal entries are not always repeated. Inconclusive means that the source gave no clear call. Such entries were picked first, then a sample of the others. For some of these results: A potency beside an inconclusive call is a rough fit, not a confirmed value. Activity calls are given as the source filed them. Unless noted, the call rests on the fitted dose curve; in most records, active means well fitted curve in the direction sought with a large enough effect; inconclusive means small, poorly fitted or top-dose-only effect, or another doubt; inactive means no such curve, though single readings can be large; an effect the other way counts as inactive or inconclusive.
# Experiments:
# [1] = system: Zika virus NS2B-NS3 protease (linked construct); assay: Primary screen NINDS Rhodamine qHTS for Zika virus inhibitors (AID 1347160); conditions: activity change, negative = inhibition: at 57.1 µM (top of the series) unless noted; further: potency means the concentration at half of the fitted maximal effect; nearly all actives have a fitted effect of over 55% in size
# Summary of the method: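 Kinetic fluorescence (Ex 480 nm, Em 540 nm) over 15 min with 1.5 microM Rhodamine110 peptide and 25 nM linked protease.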
# [2] = target: Cytochrome P450 2C9 (Homo sapiens) (UniProt P11712); assay: Cytochrome P450 family 2 subfamily C member 9 (CYP2C9) small molecule antagonists: luciferase biochemical (cell-free) qHTS assay (AID 1645842; active means well fitted curve in the direction sought with a large enough effect in the repeat runs; inconclusive means weak or mixed curves; inactive means no such curve, though single readings can be large; an effect the other way counts as inactive or inconclusive; further: potency means the concentration at half of the fitted maximal effect; nearly all actives have a fitted effect of over 55% in size)
# Chain of UniProt P11712 (P11712 whole entry, looked up): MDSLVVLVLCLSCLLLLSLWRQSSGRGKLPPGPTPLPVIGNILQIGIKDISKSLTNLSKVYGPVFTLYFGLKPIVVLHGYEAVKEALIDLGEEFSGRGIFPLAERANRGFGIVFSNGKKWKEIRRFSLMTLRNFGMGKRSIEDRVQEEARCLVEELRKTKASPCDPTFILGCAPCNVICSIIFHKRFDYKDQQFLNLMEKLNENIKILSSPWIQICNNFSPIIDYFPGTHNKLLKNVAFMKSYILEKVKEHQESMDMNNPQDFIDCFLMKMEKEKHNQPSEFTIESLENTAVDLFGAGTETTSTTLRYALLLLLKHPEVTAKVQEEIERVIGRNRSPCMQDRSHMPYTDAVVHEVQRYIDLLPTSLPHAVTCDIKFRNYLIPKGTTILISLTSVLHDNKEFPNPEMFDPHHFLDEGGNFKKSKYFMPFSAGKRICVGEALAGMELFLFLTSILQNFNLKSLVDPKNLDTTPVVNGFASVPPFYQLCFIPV
# Summary of the method: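 Luminescence, after 20 min with luciferin detection reagent, reflected CYP2C9 turnover during a 1 h NADPH-driven reaction at 37C. Enzyme-substrate mix contained 0.4% bovine serum albumin and was preincubated with compound 10 min at room temperature.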
# [3] = target: Phospholipid hydroperoxide glutathione peroxidase GPX4 (Homo sapiens) (UniProt P36969); assay: Primary qHTS Assay for Inhibitors of Recombinant Selenoprotein Glutathione Peroxidase 4 (GPX4) (AID 1845192); further: potency means the concentration at half of the fitted maximal effect; nearly all actives have a fitted effect of over 65% in size
# Chain of UniProt P36969 (P36969 whole entry, looked up): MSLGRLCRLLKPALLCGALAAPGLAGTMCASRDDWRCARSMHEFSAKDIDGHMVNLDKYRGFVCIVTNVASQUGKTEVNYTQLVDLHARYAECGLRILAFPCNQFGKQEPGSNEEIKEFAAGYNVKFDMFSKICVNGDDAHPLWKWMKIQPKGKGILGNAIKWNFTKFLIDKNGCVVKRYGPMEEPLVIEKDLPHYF
# Summary of the method: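 GR-coupled readout: 100 nM GR, 1 mM GSH, 0.5 mM NADPH; NADPH fluorescence (ex 340/em 450 nm) read at t=0 and after 15 min RT. GPX4 200 nM, preincubated 30 min with compound; substrate 0.5 mM CHP.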
# CRL-7250 = normal cell line; assay: Cytotoxic Profiling of Annotated Libraries Using Quantitative High-Throughput Screening (AID 1296008); conditions: Five cell lines viability, CellTiter-Glo ATP luminescence, 48-72 h; max response: stronger effect = lower value; further: nearly all actives have a fitted effect of over 60% in size; further: potency means the concentration at half of the fitted maximal effect; on max response: on the % scale 0 is the no-effect control and ±100 the full control effect
# Summary of the method: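 Compounds were pin-transferred onto cells and incubated 48 or 72 hr at 37 degree Celsius, 95% humidity. CellTiter-Glo was added, plates sat 10 min at room temperature, then ATP-coupled luminescence was imaged as the viability read-out.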
# CASKI = assay: Primary qHTS to identify gynecologic anti-cancer compounds using libraries of approved drugs and bioactive compounds (AID 1345084); conditions: Gynecologic cancer cell panel viability, ATPlite luminescence, 48 h; series mostly up to 57.5 µM; further: nearly all actives have a fitted effect of over 55% in size; further: potency means the concentration at half of the fitted maximal effect; on activity change, negative = cytotoxicity: on the % scale 0 is the no-effect control and ±100 the full control effect
# Summary of the method: (§1)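 Luminescence from the ATPlite ATP-monitoring reagent indicates viable cell number; lower signal means cytotoxicity. Cells received compound 16 h after seeding and were exposed for 48 h across five concentrations.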
# SKOV3 = assay: as above; conditions: Gynecologic cancer cell panel viability, ATPlite luminescence, 48 h; series mostly up to 57.5 µM
# Summary of the method: as §1
# [4] = P-glycoprotein substrates identified in KB-8-5-11 adenocarcinoma cell line, qHTS therapeutic library screen (AID 1346987); further: on the % scale 0 is the no-effect control and ±100 the full control effect; nearly all actives have a fitted effect of over 65% in size
# Summary of the method: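 KB-8-5-11, a colchicine-selected P-gp-overexpressing KB-3-1 subline, was grown without colchicine for the assay. Cells were seeded at 500 cells/well, dosed in concentration-response and incubated 72 h at 37 degree C, 5% CO2. Viability was read by CellTiter-Glo luminescence.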
# [5] = system: Zika virus NS2B-NS3 protease (unlinked complex); assay: Primary screen GU Rhodamine qHTS for Zika virus inhibitors: Unlinked NS2B-NS3 protease assay (AID 1347159); further: potency means the concentration at half of the fitted maximal effect; nearly all actives have a fitted effect of over 60% in size
# Summary of the method: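 A qHTS format was used, with compound concentrations ranging up to 114 microM. Each compound was preincubated with 25 nM NS2B-NS3 protease, and the substrate was then added at 1.5 microM. Curves were fitted with a 4-parameter Hill model.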
# [6] = OV-SAHO Cancer Cell Toxicity qHTS against the NCATS CANVASS Library (AID 1347348); conditions: OV-SAHO viability, CellTiter-Glo luminescence, 72 h; at 38.3 µM (top of the series)
# Summary of the method: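 Per well, 1000 cells; exposure 72 h with compound at 11 final concentrations; readout CellTiter-Glo luminescence.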
# [7] = HEK-293 Cancer Cell Toxicity qHTS against the NCATS CANVASS Library (AID 1347355); conditions: HEK-293 viability, CellTiter-Glo luminescence, 72 h; at 46.1 µM (top of the series); further: on the % scale 0 is the no-effect control and ±100 the full control effect; nearly all actives have a fitted effect of over 65% in size
# Summary of the method: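 Cells at 1000/well were given compound 4 h after plating in an 11-point series. Viability was read by CellTiter-Glo luminescence after 72 h at 37 degrees C.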
# [8] = HEK293 18hr Apoptosis Induction qHTS against the NCATS CANVASS Library (AID 1347357); further: 0% is about no effect
# Summary of the method: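 Luminescent caspase-3/7 signal is measured in HEK293 cells exposed for 18 hours to an 11-point concentration series; doxorubicin serves as the plate control.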
# [9] = SDT Cancer Cell Toxicity qHTS against the NCATS CANVASS Library (AID 1347365);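 further: SDT canine glioma cells 500 per well in 1536 well plates; on the % scale 0 is the no-effect control and ±100 the full control effect; nearly all actives have a fitted effect of over 60% in size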
# Summary of the method: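 SDT dog glioma cells (500/well) exposed to an 11-point compound series for 72 hr at 37C, 5% CO2. Cytotoxicity read as ATP content by CellTiterGlo luminescence; bortezomib titration as control.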
# [10] = target: Nuclear receptor subfamily 1 group I member 3 (Homo sapiens) (UniProt Q14994); assay: qHTS for Constitutive Androstane Receptor (CAR) Agonist screened against the NCATS CANVASS Library (AID 1347373); conditions: HepG2-hCAR-CYP2B6 luciferase reporter, ONE-Glo luminescence;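 further: every well also contained 1.5 µM PK11195 alongside the test compound; potency means the concentration at half of the fitted maximal effect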
# Chain of UniProt Q14994 (Q14994 whole entry, looked up): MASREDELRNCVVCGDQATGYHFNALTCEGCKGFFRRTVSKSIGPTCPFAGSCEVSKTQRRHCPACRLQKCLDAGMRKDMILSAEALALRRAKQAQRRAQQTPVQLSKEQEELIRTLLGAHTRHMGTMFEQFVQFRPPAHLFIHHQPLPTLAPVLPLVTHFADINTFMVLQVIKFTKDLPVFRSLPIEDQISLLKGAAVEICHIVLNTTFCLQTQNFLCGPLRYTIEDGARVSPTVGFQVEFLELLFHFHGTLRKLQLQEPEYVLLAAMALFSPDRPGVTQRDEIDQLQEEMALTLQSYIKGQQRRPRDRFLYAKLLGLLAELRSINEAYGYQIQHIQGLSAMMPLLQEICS
# Summary of the method: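 HepG2 cells stably carrying hCAR and a CYP2B6-2.2kb luciferase reporter, treated 24hr at 37C with compounds plus 1.5uM PK11195; activation by ONE-Glo luminescence, viability by CellTiter-Fluor.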
# [11] = qHTS for Antimalaria activity screened against the NCATS CANVASS Library (AID 1347380);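 further: Plasmodium falciparum strain Dd2 asexual parasites grown in red blood cells; nearly all actives have a fitted effect of over 40% in size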
# Summary of the method: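 Red blood cells infected with P. falciparum Dd2 (2.5% hematocrit final, 0.3% parasitemia) were exposed to compounds in an 11-point qHTS series for 72 hr at 37C under 5% O2 and 5% CO2. Lysis buffer with SYBR Green was then added for 18 hr, and fluorescence was read at 485/535 nm.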
# [12] = qHTS for activators of Nrf2/ARE signaling pathway screened against the NCATS CANVASS Library (AID 1347391); further: potency means the concentration at half of the fitted maximal effect; nearly all actives have a fitted effect of over 60% in size
# Summary of the method: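 ARE-bla HepG2 beta-lactamase reporter cells exposed to compounds for 16 h at 37C; CCF4 substrate 2 h, fluorescence at ex 405 nm, em 460/530 nm. Viability by CellTiter-Glo luminescence.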
# [13] = Viability qHTS for inhibitors of the SERCaMP assay screened against the NCATS CANVASS Library (AID 1347400); further: on the % scale 0 is the no-effect control and ±100 the full control effect; nearly all actives have a fitted effect of over 70% in size
# Summary of the method: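 SH-SY5Y-GLuc SERCaMP MJH297-derived cells, 1000/well, plated 4 h, then exposed to compounds in an 11-point qHTS series for 48 h at 37C. Viability read as CellTiter-Glo luminescence.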
# Es-2 = assay: Primary qHTS to identify gynecologic anti-cancer compounds using libraries of approved drugs and bioactive compounds (AID 1345084); conditions: Gynecologic cancer cell panel viability, ATPlite luminescence, 48 h; series mostly up to 57.5 µM; further: nearly all actives have a fitted effect of over 55% in size; further: potency means the concentration at half of the fitted maximal effect; on activity change, negative = cytotoxicity: on the % scale 0 is the no-effect control and ±100 the full control effect
# Summary of the method: as §1
# JEG-3 = assay: as above; conditions: Gynecologic cancer cell panel viability, ATPlite luminescence, 48 h; series mostly up to 57.5 µM
# Summary of the method: as §1
# [14] = Primary qHTS for inhibitors of nuclear receptor binding SET domain protein 2 (NSD2) in an isogenic RCH-ACV NSD2 p.E1099K mutant (9B) (AID 1645876); further: nearly all actives have a fitted effect of over 70% in size; further: potency means the concentration at half of the fitted maximal effect
# [15] = Primary qHTS for inhibitors of nuclear receptor binding SET domain protein 2 (NSD2) in an RCH-ACV wild type WT cells (2C) (AID 1645877); conditions: activity change, negative = cell killing: at 44.9 µM (top of the series) unless noted; further: potency means the concentration at half of the fitted maximal effect; nearly all actives have a fitted effect of over 70% in size
# [16] = Primary redox qHTS assay for identification of artifact compounds. (AID 1845223); conditions: Amplex Red/HRP redox cycling with DTT, fluorescence; redox activity (% of DA3003): at 53.8 µM (top of the series); further: potency means the concentration at half of the fitted maximal effect
# Summary of the method: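 Amplex Red (25 uM) and HRP (250 mU/mL) in HBSS, with compounds for 15 min, then 250 uM DTT for 30 min, room temperature, dark. Fluorescence 525/598 nm read; normalized to DMSO and 10 uM DA3003; Hill fit.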
# PA-1 = assay: Primary qHTS to identify gynecologic anti-cancer compounds using libraries of approved drugs and bioactive compounds (AID 1345084); conditions: Gynecologic cancer cell panel viability, ATPlite luminescence, 48 h; series mostly up to 57.5 µM; further: nearly all actives have a fitted effect of over 55% in size; further: potency means the concentration at half of the fitted maximal effect; on activity change, negative = cytotoxicity: on the % scale 0 is the no-effect control and ±100 the full control effect
# Summary of the method: as §1
# [17] = Primary fluorescence-based thiol-reactive (MSTI) qHTS assay for identification of artifact compounds. (AID 1845221);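 further: potency means the concentration at half of the fitted maximal effect; thiol-reactive compounds lower the probe fluorescence signal; nearly all actives have a fitted effect of over 65% in size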
# Summary of the method: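 Compounds were incubated 1 h at room temperature in the dark with the MSTI probe (4 uM) in PBS pH 7.4, 2% DMSO. Signals were normalized between Acetyl-MSTI and MSTI.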
# Hek293T = assay: Primary qHTS to identify gynecologic anti-cancer compounds using libraries of approved drugs and bioactive compounds (AID 1345084); conditions: Gynecologic cancer cell panel viability, ATPlite luminescence, 48 h, control line for the selectivity index; activity change, negative = cytotoxicity: at 57.5 µM (top of the series) unless noted; further: nearly all actives have a fitted effect of over 55% in size; further: potency means the concentration at half of the fitted maximal effect
# Summary of the method: as §1
# OV90 = assay: as above; conditions: Gynecologic cancer cell panel viability, ATPlite luminescence, 48 h; series mostly up to 57.5 µM
# Summary of the method: as §1
# Tags describe the fitted curve by direction and shape.
structure (smiles),measurement,setting,value
O=C(COCC(=O)N1CCN(C(c2ccccc2)c2ccccc2)CC1)Nc1ccc(Cl)cc1C(=O)O,Potency,[1],active: 12.6 µM
same,Potency,[2],"inconclusive: 37.9 µM [inhibitor, single point]"
same,Potency,[3],"inconclusive: 10.1 µM [inhibitor, partial curve]"
same,max response,CRL-7250,inactive: -11.2%
same,Potency,CASKI,inactive
same,Potency,SKOV3,"inconclusive: 31.6 µM [rising, partial curve]"
CC(C)c1ccc2c(c1)CCC1[C@](C)(C(=O)O)CCC[C@]21C (some centres undefined),Potency,[4],inactive
same,Potency,[5],active: 20 µM
same,Potency,[1],"inconclusive: 22.4 µM [inhibitor, single point] and active: 12.4 µM"
same,"activity change, negative = cytotoxicity",[6],inactive: -0.0412%
same,"activity change, negative = cytotoxicity",[7],inactive: 3.34%
same,Potency,[8],inactive
same,Potency,[9],inactive
same,Potency,[10],"inconclusive: 14.8 µM [activator, partial curve]"
same,Potency,[11],inactive
same,Potency,[12],"inconclusive: 26.3 µM [activator, partial curve]"
same,Potency,[13],inactive
same,outcome,CRL-7250,inactive
same,Potency,Es-2,inactive
same,Potency,JEG-3,inactive
CC(=O)OC1/C(C)=C/C(=O)C(OC(C)=O)C(C)(C)/C=C/C(C)C(=O)C2(OC(C)=O)CC(C)C(OC(=O)c3ccccc3)C12 (centres undefined),Potency,[5],"inconclusive: 10 µM [inhibitor, full curve, poor fit]"
same,Potency,[14],"inconclusive: 6.08 µM [inhibitor, single point]"
same,Potency,[15],"inconclusive: 9.63 µM [inhibitor, single point]"
same,Potency,[16],"inconclusive: 1.41 µM [activator, partial curve, poor fit]"
same,Potency,CRL-7250,"inconclusive: 7.69 µM [inhibitor, single point]"
same,Potency,Es-2,"inconclusive: 7.94 µM [cytotoxic, partial curve, poor fit]"
same,Potency,PA-1,"inconclusive: 12.6 µM [cytotoxic, single point]"
CC1=CC(=O)CC(C)(C)C1CCC(C)O[C@@H]1O[C@H](CO[C@@H]2OC[C@@H](O)[C@H](O)[C@H]2O)[C@@H](O)[C@H](O)[C@H]1O (some centres undefined),Potency,[5],"inconclusive: 12.6 µM [inhibitor, full curve]"
same,Potency,[1],"inconclusive: 11.2 µM [inhibitor, single point]"
same,Potency,[14],inactive
same,Potency,[17],"inconclusive: 0.582 µM [inhibitor, partial curve, poor fit]"
same,Potency,CRL-7250,"inconclusive: 14.2 µM [inhibitor, single point]"
same,Potency,Hek293T,inactive
same,Potency,OV90,inactive
